Paper PMC4336329 (PLoS ONE, 2015)
Out of some 310,000 compounds screened, about 14,000 (4.5%) showed an effect of 50% or more. The effect is printed as a negative number. The list shows a part of the results.

These molecules were tested against human ether-à-go-go-related gene (hERG) potassium channel (human, UniProt Q12809) (assay: primary screen, population patch clamp on CHO cells stably expressing hERG).
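Also: peak tail current of the secondary pulse compared with the same well before compound.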

Sequence of human ether-à-go-go-related gene (hERG) potassium channel (Q12809 whole entry, looked up): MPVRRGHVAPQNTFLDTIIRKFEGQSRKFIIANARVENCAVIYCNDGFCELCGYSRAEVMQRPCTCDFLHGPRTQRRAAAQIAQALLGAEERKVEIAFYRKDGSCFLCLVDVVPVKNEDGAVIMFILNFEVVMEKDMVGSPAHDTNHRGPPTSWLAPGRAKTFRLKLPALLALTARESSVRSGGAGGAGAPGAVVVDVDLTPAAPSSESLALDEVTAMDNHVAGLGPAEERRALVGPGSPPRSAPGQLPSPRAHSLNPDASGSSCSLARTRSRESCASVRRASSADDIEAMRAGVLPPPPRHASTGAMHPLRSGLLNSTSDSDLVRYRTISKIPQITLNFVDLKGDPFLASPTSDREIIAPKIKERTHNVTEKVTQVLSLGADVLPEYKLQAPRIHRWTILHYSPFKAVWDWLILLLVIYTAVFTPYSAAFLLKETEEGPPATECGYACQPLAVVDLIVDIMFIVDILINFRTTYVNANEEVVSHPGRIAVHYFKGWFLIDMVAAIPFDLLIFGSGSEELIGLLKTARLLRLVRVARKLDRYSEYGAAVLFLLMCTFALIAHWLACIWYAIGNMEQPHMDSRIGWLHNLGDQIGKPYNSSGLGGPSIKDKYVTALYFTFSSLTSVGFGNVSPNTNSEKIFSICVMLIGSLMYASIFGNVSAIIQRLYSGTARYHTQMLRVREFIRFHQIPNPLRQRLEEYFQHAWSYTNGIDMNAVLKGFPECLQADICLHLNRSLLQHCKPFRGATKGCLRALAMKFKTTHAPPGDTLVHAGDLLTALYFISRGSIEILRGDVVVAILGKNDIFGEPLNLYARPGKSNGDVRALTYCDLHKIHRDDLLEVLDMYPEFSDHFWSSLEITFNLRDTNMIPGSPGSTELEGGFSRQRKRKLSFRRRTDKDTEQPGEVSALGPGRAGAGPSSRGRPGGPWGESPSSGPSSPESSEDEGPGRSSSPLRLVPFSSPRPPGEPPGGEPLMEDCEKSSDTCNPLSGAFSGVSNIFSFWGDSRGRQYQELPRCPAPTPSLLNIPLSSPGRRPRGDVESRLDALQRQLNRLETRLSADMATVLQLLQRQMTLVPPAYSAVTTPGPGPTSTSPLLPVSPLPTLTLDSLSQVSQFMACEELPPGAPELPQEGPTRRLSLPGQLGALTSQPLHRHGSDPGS

| Structure (SMILES) | hERG current change (%, negative = inhibition) at 10uM [%] |
| --- | --- |
| CCN1CCN(CCC(=O)Nc2ccc(C)cc2)CC1.Cl | -8.34 |
| CN(C)/C=C/C(=O)c1ccc(Br)cc1 | -15.7 |
| CNC(=O)CN(c1cc(C)ccc1OC)S(=O)(=O)c1ccc(C)cc1 | -0.703 |
| O=C1CCCC2(O)C1C(c1cccc(Br)c1)NC(=O)N2Cc1ccccc1 (stereo not drawn) | 12.3 |
| O=C(O)/C=C/c1ccc(OCCCF)cc1 | 20.3 |
| O=C(O)CCN1C(=O)C(=C2CCCCCC2)SC1=S | 0.436 |
| CCOc1ccccc1Nc1nnc(SCc2ccc(C(=O)OC)o2)s1 | -36.2 |
| COc1cccc(C2c3[nH]c4ccccc4c3C[C@H]3C(=O)N(C4CCN(Cc5ccccc5)CC4)CC(=O)N23)c1 (stereo partly drawn) | -49 |
| O=C(CCC(=O)N/N=C/c1c[nH]c2ccccc12)NCc1ccccc1 | 17.2 |
| O=C(Nc1ccc(F)cc1)c1cc2c(s1)CCCC2 | 5.88 |
| O=C(Cn1cc([N+](=O)[O-])ccc1=O)NCC1COc2ccccc2O1 (stereo not drawn) | -3.82 |
| CC(=O)c1cccc(NC(=O)N[C@@H](CC(C)C)C(=O)O)c1 | -2.5 |
| Fc1ccc(-c2csc(/C=C/c3ccc4c(c3)OCO4)n2)cc1 | 13.2 |
| O=C(CSc1ncn[nH]1)c1ccccc1 | 18.6 |
| C/C(=N\Nc1cccc2cccnc12)c1ccc(N)cc1 | 8.11 |
| COc1ccc2[nH]cc(CCNC(=O)c3ccccc3Cl)c2c1 | 10.7 |
| O=C(Cn1cc(C(F)(F)F)ccc1=O)N/N=C/c1ccc(Cl)c(Cl)c1 | -15.4 |
| CN(C)C(=O)c1ccc(NC(=O)c2cccc(S(=O)(=O)N3CCCCCC3)c2)cc1 | -18.2 |
| CCN(CC)CCOc1nc(C)nc2c1oc1ccccc12.Cl | -64.6 |
| COc1ccc(C=NC(CO)C(O)c2ccc([N+](=O)[O-])cc2)cc1 (stereo not drawn) | 18.2 |
| Cc1cccnc1NC(=O)NC(=O)c1ccc(C(C)(C)C)s1 | -14.2 |
| Cc1ccc(Cl)cc1N1CCN(Cc2nc3c(c(=O)[nH]c(=O)n3C)n2Cc2ccccc2F)CC1 | 0.179 |

| Structure (SMILES) | hERG current change (%, negative = inhibition) at 10uM [%] |
| --- | --- |
| Cc1cc(NCc2ccco2)n2c(nc3ccccc32)c1C#N | -16.1 |
| CCN(CC)S(=O)(=O)c1cc(C(=O)N2CCc3ccccc32)ccc1Cl | -16 |
| CN(C=[N+](C)C)c1cccc2c1C(=O)c1ccccc1C2=O.[Cl-] | -43 |
| Cc1ccc(-c2nc3c(c(=O)c4ccccc4n3C)c(=O)n2Cc2ccco2)cc1 | 2.18 |
| O=S(=O)(c1cccc(C(F)(F)F)c1)N1CCC(CO)(CCCc2ccccc2)CC1 | -6.59 |
| N#Cc1ccccc1S(=O)(=O)N1CCN(C(=O)c2cc(-c3ccccc3)nn2-c2ccccc2)CC1 | 14.4 |
| COC(c1ccccc1)c1nnc(CCC(=O)NCc2ccc3ncccc3c2)o1 (stereo not drawn) | -43.3 |
| Cc1ccc(S(=O)(=O)c2nnn3c2nc(NCCCN2CCCC2=O)c2ccccc23)cc1C | -12.7 |
| CC1(C)C(=O)OC(c2ccco2)C(C)(C)C1=O (stereo not drawn) | -3.15 |
| CCOC(=O)CC(=O)CSc1nc2ccccc2c(=O)n1-c1ccc(C(=O)NCCOC)cc1 | 0.133 |
| CCN(c1ccccc1)S(=O)(=O)c1ccc(Cl)c(NC(=O)COC(=O)c2cc(O)c3ccccc3c2O)c1 | 18.7 |
| Cc1cc(NC(=O)Cn2cc([N+](=O)[O-])cn2)no1 | 14.2 |
| COc1cc(C(=O)NC(=S)NCc2ccco2)cc(OC)c1OC | 1.74 |
| COc1ccc(CNC(=O)c2cnccn2)cc1 | -2.48 |
| CCOc1cc(C2C(C#N)=C(N)OC3=C2C(=O)CC(C)(C)C3)cc([N+](=O)[O-])c1O (stereo not drawn) | -25.2 |
| CC(=O)NC(Cc1ccc(F)c(F)c1)C(=O)NC1CCN(c2nnnn2-c2ccccc2)CC1 (stereo not drawn) | -54.6 |
| CC(C)n1c(-c2ccncc2)n[nH]c1=S | 17.7 |
| CC1CN(C(=O)COC(=O)c2ccc(N)c([N+](=O)[O-])c2)CC(C)O1 (stereo not drawn) | -18.6 |
| O=C(CS(=O)(=O)c1ccc(F)cc1)Nc1nnc(-c2cccs2)o1 | 13.3 |
| OCCOCCNc1ncnc2c1cnn2-c1ccccc1 | 9.79 |
| COc1cccc(OC)c1C(=O)N1CCN(Cc2ccncc2)CC1 | -3.9 |
| COc1ccc(NC(=O)CN2C(=O)COc3ccc(S(=O)(=O)N4CCOCC4)cc32)cc1Cl | 12.8 |

| Structure (SMILES) | hERG current change (%, negative = inhibition) at 10uM [%] |
| --- | --- |
| O=C(O)CCn1c(=O)c2ccccc2c2ccccc2c1=O | 7.44 |
| O=S(=O)(NCc1ccc(F)cc1)c1ccc(Br)cc1Br | -15.8 |
| Cc1oc2cc3oc(=O)c(CC(=O)N[C@H](C(=O)N[C@@H](C(=O)O)c4ccccc4)C(C)C)c(C)c3cc2c1C | 1.66 |
| Cc1ccc(NC(=O)C(=O)NCC2CCCN2S(=O)(=O)c2cccs2)cc1C (stereo not drawn) | -14.6 |
| COCCNC(=O)COC(=O)CSCc1nc2ccccc2s1 | -4.1 |
| COC(=O)CC1COc2ccccc2N1C(=O)c1cc(OC)c(OC)c(OC)c1 (stereo not drawn) | 12.9 |
| Cc1ccc(NS(=O)(=O)c2ccc(OCC(=O)NCc3cccnc3)cc2)cc1 | -12.2 |
| O=C(O)C1CC(c2ccccc2F)=NO1 (stereo not drawn) | 7.89 |
| CC1(C)Cc2c(ccc3ccccc23)/C(=C/C#N)N1 | 25.5 |
| O=C(Nc1ccccc1O)c1ccc2c(c1)C(=O)N(N1C(=O)c3ccccc3C1=O)C2=O | 8.54 |
| c1ccc(-c2cc(-c3ccccc3)[nH]n2)cc1 | 12.3 |
| CCSc1nc2ccccc2n1CC(=O)O | 22.6 |
| CC(=O)n1c(=O)c2ccccc2c(=O)n1-c1ccccc1 | 3.89 |
| O=C1NC2(Nc3ccccc31)C(=O)Nc1ccc(Br)cc12 (stereo not drawn) | 3.15 |
| CCOc1ccc(C(CC(=O)O)NC(=O)C2c3ccccc3Oc3ccccc32)cc1 (stereo not drawn) | 7.42 |
| CN(C)C(=O)CC12CC3CC(C1)CC(CC(=O)N(C)C)(C3)C2 | -6.85 |
| CCCCCCC(=O)NC(Nc1ccc(S(N)(=O)=O)cc1)C(Cl)(Cl)Cl (stereo not drawn) | -0.328 |
| C/C=C/c1ccc(OCc2cc(=O)n3cc(C)ccc3n2)c(OC)c1 | -26.8 |
| Cc1ccc(C(=O)N/C(N)=N/c2nc3ccccc3o2)cc1 | -2.82 |
| O=C1Cc2cc([N+](=O)[O-])ccc2N1c1c(Cl)cccc1Cl | -13.9 |
| N#Cc1ccccc1NC(=O)CSc1nnc(-c2ccccc2O)n1-c1ccccc1 | 20.9 |
| O=C(NC1CCN(Cc2ccccc2)CC1)c1ccc(N2CC3CC(C2)c2cccc(=O)n2C3)c([N+](=O)[O-])c1 (stereo not drawn) | 18.4 |

| Structure (SMILES) | hERG current change (%, negative = inhibition) at 10uM [%] |
| --- | --- |
| COc1ccc(C2(C)ON(c3ccccc3C(F)(F)F)C2=O)cc1 (stereo not drawn) | 5.36 |
| COc1ccc2ccc(=O)oc2c1CC=C(C)C | -3.17 |
| COc1ccc(C(CCNC(C)c2ccccc2)c2ccc(F)cc2)cc1 (stereo not drawn) | -54.6 |
| S=C(Nc1ccc(Cl)cc1Cl)NC1CCN(Cc2ccccc2)CC1 | -2.76 |
| COc1ccc(CSc2nc3ccccc3c(=O)n2CCCN2CCOCC2)cc1F | -53.4 |
| Cc1cc2nccc(-c3ccccn3)n2n1 | 28.3 |
| CC(/C=N/NC(=O)c1cc(-c2cccs2)[nH]n1)=C\c1ccccc1 | 11.1 |
| COc1ccc(NC(=O)CSc2ccc(NC(C)=O)cc2)cc1S(=O)(=O)N1CCCCC1 | -0.801 |
| CCc1ccc(C2=NN(CCC(=O)NC3CC3)C(=O)CC2)cc1 | -4.93 |
| Cc1cc(C)cc(Nc2nc3ccc(C)cc3n3cnnc23)c1 | 9.39 |
| Cc1cccc(NC(=O)c2cccc(C(=O)Nc3cccc(C)n3)c2)n1 | -32.7 |
| COC(=O)c1sc(N2C(=O)C(O)=C(C(=O)c3ccc(C)o3)C2c2ccc(OC)c(OC)c2)nc1C (stereo not drawn) | 26.9 |
| Oc1ccc(Br)cc1CNc1nccs1 | 11.1 |
| O=C(c1cc2cc([N+](=O)[O-])ccc2oc1=O)N1CCN(c2ncccn2)CC1 | -0.285 |
| Cc1cccn2c(=O)nc(SCC(=O)NC3CCCC3)nc12 | 7.83 |
| CCOC(=O)Nc1ccc2c(c1)N(C(=O)OCCN(C)C)c1ccccc1CC2.Cl | -43.2 |
| CS/C(=C\[N+](=O)[O-])Nc1ccccc1 | 17.9 |
| C/C(CC(=O)Nc1ccc(Cl)c(C(F)(F)F)c1)=N\NC(=O)c1cnccn1 | -25.8 |
| COc1cc(C(=O)NCc2ccc3c(c2)OCO3)c([N+](=O)[O-])cc1OC | 0.371 |
| CN(C)CCOC1c2ccccc2CSc2ccccc21.O=CO (stereo not drawn) | -15.8 |
| O=C1CCCC/C1=C\Nc1ccccc1C(=O)O | 3.67 |
